The text below walks through data of a collection of fitness landscapes (doi:10.1016/j.celrep.2020.107928).

In all, about 81,000 sequences were measured (“one-hybrid fitness for binding parS DNA”: median about -0.17, highest 2% from about 0.51 on). This is one part of the list. A value given as a limit tells only on which side of the number the result lay.

B1: Caulobacter ParB omega fusion; a variant is named by its letters at X, in order, B8GW30 (parent)
chain: MESVVVGEPGMSEGRRGLGRGLSALLGEVDAAPAQAPGEQLGGSREAPIEILQRNPDQPRRTFREEDLEDLSNSIREKGVLQPILVRPSPDTAGEYQIVAGERAWRAAQRAGLKTVPIMVRELDDLAVLEIGIIENVQRADLNVLEEALSYKVLMEKFERTQENIAQTIGKSXSHVANXMRLLXLPDEVQSYLVSGELTAXHARAIAAAADPVALAKQIIEGGLSVRETEALARKAPNLSAGKSKGGRPPRVKDTDTQALESDLSSVLGLDVSIDHRGSTGTLTITYATLEQLDDLCNRLTRGI

This assay covers variants of B1. The experiment in a line: one-hybrid fitness for binding parS DNA (scaled: cognate 1, non-cognate 0); higher = stronger binding. Particulars: with parS DNA site. The gist of the method: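 In E. coli USO, a HIS3 reporter with its site placed 19 bp from the promoter was used to select Caulobacter ParB variants randomised at four specificity codons. Growth lasted 48 hours at 37°C on histidine-free M9 containing 0.1 mM IPTG and 5 mM 3-AT. Fitness was taken as the log change in variant-to-wild-type read ratio from Illumina sequencing of pre- and post-selection plasmids, rescaled between the non-cognate and cognate sites.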
Turning to RFWF, the “one-hybrid fitness for binding parS DNA” value was not above 0.2.

IWLV: the “one-hybrid fitness for binding parS DNA” value is not above 0.2. SYQR: the “one-hybrid fitness for binding parS DNA” value is not above 0.2. The same measure for SIRI: not above 0.2; for GWYV: not above 0.2; for NTTD: not above 0.2. As for MTWA, the “one-hybrid fitness for binding parS DNA” value was not above 0.2. The same measure for QTLR: not above 0.2. For the variant WAAN, the “one-hybrid fitness for binding parS DNA” value is not above 0.2. Turning to TGPM, the “one-hybrid fitness for binding parS DNA” value is not above 0.2. As to SKAW, the “one-hybrid fitness for binding parS DNA” value is not above 0.2.

For AKWL, the “one-hybrid fitness for binding parS DNA” value was not above 0.2. For HLTL the value was not above 0.2; for NRTM, not above 0.2. For the variant ARLS, the “one-hybrid fitness for binding parS DNA” value is not above 0.2. Consider AYGA, for which the “one-hybrid fitness for binding parS DNA” value was not above 0.2. For PTMR, the “one-hybrid fitness for binding parS DNA” value was not above 0.2. For RIGG the value was 1.02.

DHKS: the “one-hybrid fitness for binding parS DNA” value is not above 0.2. The same measure for PKAL: not above 0.2; for ALDT: not above 0.2. On to AWTI, for which the “one-hybrid fitness for binding parS DNA” value was not above 0.2. Take DCRE: the “one-hybrid fitness for binding parS DNA” value was not above 0.2.

As to YEEE, the “one-hybrid fitness for binding parS DNA” value was not above 0.2.

Turning to KPID, the “one-hybrid fitness for binding parS DNA” value was not above 0.2. In the case of RDCQ, the “one-hybrid fitness for binding parS DNA” value is not above 0.2. Consider HLLI, for which the “one-hybrid fitness for binding parS DNA” value was not above 0.2.

As for NHSR, the “one-hybrid fitness for binding parS DNA” value is not above 0.2. For CACC the value was not above 0.2. Consider RYIL, for which the “one-hybrid fitness for binding parS DNA” value turned out to be 0.204.

Consider TFCI, for which the “one-hybrid fitness for binding parS DNA” value is not above 0.2.

On to TAKW, for which the “one-hybrid fitness for binding parS DNA” value is not above 0.2. Regarding REKG, the “one-hybrid fitness for binding parS DNA” value amounted to 0.533. For QASP the value was not above 0.2.

As for CIKT, the “one-hybrid fitness for binding parS DNA” value is not above 0.2. The same measure for NRTL: not above 0.2; for PYAC: not above 0.2; for MSQP: not above 0.2. For EDMV the value was not above 0.2; for LDLP, not above 0.2; for NIRY, not above 0.2.

In the case of QPDW, the “one-hybrid fitness for binding parS DNA” value is not above 0.2.

With DHTW, the “one-hybrid fitness for binding parS DNA” value was not above 0.2. In the case of NLLG, the “one-hybrid fitness for binding parS DNA” value is not above 0.2. On to RHKC, for which the “one-hybrid fitness for binding parS DNA” value came out at 0.858. The same measure for GPIS: not above 0.2; for GTLC: not above 0.2.

IGRR: the “one-hybrid fitness for binding parS DNA” value is not above 0.2. In the case of ASHP, the “one-hybrid fitness for binding parS DNA” value was not above 0.2. For ATLF the value was not above 0.2. For APPV the value was not above 0.2. Turning to GQDK, the “one-hybrid fitness for binding parS DNA” value is not above 0.2. The same measure for TTVD: not above 0.2; for DHTE: not above 0.2; for ERPR: not above 0.2. Take YYPI: the “one-hybrid fitness for binding parS DNA” value was not above 0.2. For the variant WSCC, the “one-hybrid fitness for binding parS DNA” value was not above 0.2. The same measure for ILAC: not above 0.2; for ISYQ: not above 0.2; for QGYL: not above 0.2. For LVTC the value was not above 0.2; for ALTH, not above 0.2; for VTLS, not above 0.2. For LKST the value was not above 0.2. Turning to QDPF, the “one-hybrid fitness for binding parS DNA” value is not above 0.2.

Turning to QTNM, the “one-hybrid fitness for binding parS DNA” value is not above 0.2. Regarding GLLM, the “one-hybrid fitness for binding parS DNA” value is not above 0.2. The same measure for CYRS: not above 0.2. For YFPR the value was not above 0.2; for RGVN, not above 0.2; for KVRT, not above 0.2. For the variant VWVT, the “one-hybrid fitness for binding parS DNA” value was not above 0.2. Take NSVT: the “one-hybrid fitness for binding parS DNA” value was not above 0.2. The same measure for NPPG: not above 0.2; for RKCS: 0.855; for HATN: not above 0.2. The same measure for RYDC: 0.949; for CHPN: not above 0.2. Consider FTVS, for which the “one-hybrid fitness for binding parS DNA” value is not above 0.2. Regarding DSWS, the “one-hybrid fitness for binding parS DNA” value is not above 0.2. For ATMS the value was not above 0.2; for SPAW, not above 0.2. As for DDMS, the “one-hybrid fitness for binding parS DNA” value is not above 0.2. For PPAR the value was not above 0.2; for SQAS, not above 0.2; for TRHM, not above 0.2.

Take HIDA: the “one-hybrid fitness for binding parS DNA” value was not above 0.2.

Take YQAS: the “one-hybrid fitness for binding parS DNA” value was not above 0.2. For LKIR the value was not above 0.2; for PKQY, not above 0.2; for GEAG, not above 0.2. The same measure for DHPD: not above 0.2. For VSKG the value was not above 0.2; for LLNA, not above 0.2; for MLGR, not above 0.2. On to SGPC, for which the “one-hybrid fitness for binding parS DNA” value is not above 0.2.

AMVI: the “one-hybrid fitness for binding parS DNA” value is not above 0.2.

VSQR: the “one-hybrid fitness for binding parS DNA” value is not above 0.2. For HYVV the value was not above 0.2; for IMAE, not above 0.2. For ALMH the value was not above 0.2; for FTAV, not above 0.2; for KIRI, not above 0.2. For GRES the value was not above 0.2. Regarding QAHA, the “one-hybrid fitness for binding parS DNA” value was not above 0.2. For PLRT the value was not above 0.2; for FYEC, not above 0.2; for HAKC, not above 0.2.

In the case of CLDG, the “one-hybrid fitness for binding parS DNA” value was not above 0.2. For TNFR the value was not above 0.2. For AEYL the value was not above 0.2; for FMAL, not above 0.2; for MHTA, not above 0.2. The same measure for ANKG: not above 0.2.

For GHAA, the “one-hybrid fitness for binding parS DNA” value is not above 0.2. For TQIK the value was not above 0.2; for LCGA, not above 0.2; for YYKK, not above 0.2. WASM: the “one-hybrid fitness for binding parS DNA” value was not above 0.2.

For RCSR, the “one-hybrid fitness for binding parS DNA” value is not above 0.2. The same measure for SMRS: not above 0.2; for RAVG: 0.923.

Turning to CNGG, the “one-hybrid fitness for binding parS DNA” value is not above 0.2. In the case of QKKM, the “one-hybrid fitness for binding parS DNA” value is not above 0.2.

For the variant WVAG, the “one-hybrid fitness for binding parS DNA” value was not above 0.2. For ILYD the value was not above 0.2; for VRDS, not above 0.2; for DSGS, not above 0.2.

On to GMGY, for which the “one-hybrid fitness for binding parS DNA” value is not above 0.2. For the variant ELAS, the “one-hybrid fitness for binding parS DNA” value was not above 0.2. As to PHQG, the “one-hybrid fitness for binding parS DNA” value is not above 0.2. The same measure for SHTA: not above 0.2; for KNSR: not above 0.2.

Consider HVIA, for which the “one-hybrid fitness for binding parS DNA” value is not above 0.2. The same measure for TNKN: not above 0.2. LPVG: the “one-hybrid fitness for binding parS DNA” value is not above 0.2. The same measure for DGVF: not above 0.2. The same measure for RPAW: not above 0.2. For the variant LTPQ, the “one-hybrid fitness for binding parS DNA” value is not above 0.2. The same measure for KNRK: not above 0.2. With EHRA, the “one-hybrid fitness for binding parS DNA” value is not above 0.2.

In the case of TAFS, the “one-hybrid fitness for binding parS DNA” value is not above 0.2. For VAKR the value was not above 0.2. The same measure for DCRT: not above 0.2; for IFCR: not above 0.2. The same measure for LDNC: not above 0.2. For DDPS, the “one-hybrid fitness for binding parS DNA” value is not above 0.2. With QCVK, the “one-hybrid fitness for binding parS DNA” value was not above 0.2. For LHIR the value was not above 0.2.

On to NAFS, for which the “one-hybrid fitness for binding parS DNA” value is not above 0.2. On to ATTV, for which the “one-hybrid fitness for binding parS DNA” value was not above 0.2. The same measure for PCRW: not above 0.2; for LRSH: not above 0.2.
